Results on seven variants are retold here after the supplement of paper PMC12217912.

The other results are listed elsewhere or left out. Sequences were assembled here from the parent chain. Values near 0.05 are background.

B1: TEV protease; numbered along this chain (parent)
chain: MGESLFKGPRDYNPISSSICHLTNESDGHTTSLYGIGFGPFIITNKHLFRRNNGTLVVQSLHGVFKVKDTTTLQQHLVDGRDMIIIRMPKDFPPFPQKLKFREPQREERICLVTTNFQTKSMSSMVSDTSCTFPSGDGIFWKHWIQTKDGQCGSPLVSTRDGFIVGIHSASNFTNTNNYFTSVPKNFMELLTNQEAQQWVSGWRLNADSVLWGGHKVFMVKPEEPFQPVKEATQL

In the assay the parent is B1. Kind of assay: raw area under fraction-flipped curve 0-4 h after induction (AUC4h, not background-subtracted), DNA-recorder readout of cleavage of the substrate (dimensionless); higher = more cleavage of the substrate by the protease variant. The following applies: temperature: 34 °C; time window: 0-4 h after rhamnose induction. On the procedure: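 In vivo DNA recorder in E. coli TOP10(DE3) ΔrhaA at 34 °C. Each TEVp single-site mutant (parent TEVp 0) is paired with a single-site variant of the 7-mer TEVs (canonical ENLYFQ|S). The substrate sits between flexible linkers in a Bxb1-sfGFP-TEVs-SsrA fusion, so cleavage stabilises Bxb1 and speeds flipping of a recombination array, read by NGS. The value is the raw area under the fraction-flipped curve over 0-4 h after rhamnose induction (AUC4h), with ≥20 reads per time point. It is not background-subtracted; inactive controls average about 0.047.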
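Further: Bxb1 expression induced with 0.2% (w/v) L-rhamnose at OD600 near 0.5, cultures sampled hourly, flipped fraction per protease–substrate barcode pair counted by paired-end Illumina sequencing.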

M83G: the “area with substrate CNLYFQS” value turned out to be 0.0439, the “area with substrate DNLYFQS” value was 0.0471, the “area with substrate FNLYFQS” value came out at 0.0465 and the “area with substrate HNLYFQS” value was 0.0479. Besides, the “area with substrate KNLYFQS” value worked out at 0.045, the “area with substrate LNLYFQS” value came out at 0.0439, the “area with substrate MNLYFQS” value amounted to 0.0499 and the “area with substrate NNLYFQS” value was 0.0529. The “area with substrate PNLYFQS” value came to 0.0571, the “area with substrate RNLYFQS” value was 0.0389, the “area with substrate SNLYFQS” value turned out to be 0.0481 and the “area with substrate TNLYFQS” value is 0.0234. In addition, the “area with substrate VNLYFQS” value worked out at 0.0366, the “area with substrate WNLYFQS” value amounted to 0.0525 and the “area with substrate YNLYFQS” value is 0.0407.
In the case of M83C, the “area with substrate CNLYFQS” value came out at 0.0525, the “area with substrate DNLYFQS” value came out at 0.0581, the “area with substrate FNLYFQS” value came to 0.0552 and the “area with substrate HNLYFQS” value was 0.0654. Besides, the “area with substrate KNLYFQS” value is 0.0672, the “area with substrate MNLYFQS” value worked out at 0.0647, the “area with substrate SNLYFQS” value stood at 0.0919 and the “area with substrate TNLYFQS” value came to 0.0585. Besides, the “area with substrate VNLYFQS” value was 0.0686 and the “area with substrate YNLYFQS” value worked out at 0.0608.
M83K: the “area with substrate CNLYFQS” value turned out to be 0.0493, the “area with substrate DNLYFQS” value was 0.0454, the “area with substrate KNLYFQS” value turned out to be 0.056 and the “area with substrate LNLYFQS” value is 0.0704. Moreover, the “area with substrate NNLYFQS” value amounted to 0.0629, the “area with substrate PNLYFQS” value came to 0.0646, the “area with substrate QNLYFQS” value stood at 0.0475 and the “area with substrate RNLYFQS” value amounted to 0.0651. Also, the “area with substrate TNLYFQS” value amounted to 0.0356, the “area with substrate WNLYFQS” value was 0.0516 and the “area with substrate YNLYFQS” value was found to be 0.0271.
Take V113Q: the “area with substrate CNLYFQS” value came to 0.0637, the “area with substrate DNLYFQS” value is 0.0443, the “area with substrate HNLYFQS” value is 0.0649 and the “area with substrate INLYFQS” value came out at 0.0617. In addition, the “area with substrate KNLYFQS” value amounted to 0.0605, the “area with substrate LNLYFQS” value amounted to 0.0499, the “area with substrate PNLYFQS” value is 0.0551 and the “area with substrate SNLYFQS” value worked out at 0.063. Moreover, the “area with substrate TNLYFQS” value was 0.0735, the “area with substrate VNLYFQS” value was 0.0415, the “area with substrate WNLYFQS” value was determined as 0.0548 and the “area with substrate YNLYFQS” value came out at 0.0608.
Turning to I84F, the “area with substrate CNLYFQS” value amounted to 0.0441, the “area with substrate DNLYFQS” value turned out to be 0.0666, the “area with substrate HNLYFQS” value is 0.0519 and the “area with substrate INLYFQS” value turned out to be 0.0578. Besides, the “area with substrate KNLYFQS” value stood at 0.0429, the “area with substrate MNLYFQS” value is 0.0602, the “area with substrate QNLYFQS” value came out at 0.0556 and the “area with substrate SNLYFQS” value was determined as 0.0589. Moreover, the “area with substrate TNLYFQS” value came to 0.0654 and the “area with substrate YNLYFQS” value stood at 0.029.
Consider I110S, for which the “area with substrate CNLYFQS” value was determined as 0.0592, the “area with substrate DNLYFQS” value stood at 0.0526, the “area with substrate FNLYFQS” value was 0.0522 and the “area with substrate HNLYFQS” value is 0.0484. The “area with substrate INLYFQS” value was 0.0463, the “area with substrate KNLYFQS” value stood at 0.0543, the “area with substrate LNLYFQS” value was 0.0547 and the “area with substrate MNLYFQS” value was found to be 0.0579. The “area with substrate SNLYFQS” value worked out at 0.0666, the “area with substrate TNLYFQS” value turned out to be 0.083, the “area with substrate WNLYFQS” value turned out to be 0.0425 and the “area with substrate YNLYFQS” value came to 0.041.
Consider M122T, for which the “area with substrate CNLYFQS” value worked out at 0.0762, the “area with substrate DNLYFQS” value worked out at 0.0768, the “area with substrate HNLYFQS” value was 0.0622 and the “area with substrate INLYFQS” value worked out at 0.0745. Further, the “area with substrate KNLYFQS” value came out at 0.0711, the “area with substrate NNLYFQS” value was 0.0673, the “area with substrate PNLYFQS” value is 0.0813 and the “area with substrate TNLYFQS” value is 0.0718. Besides, the “area with substrate WNLYFQS” value was 0.0545 and the “area with substrate YNLYFQS” value was determined as 0.0616.
